# Test results taken from article PMC9911399, “Two distinct binding modes provide the RNA-binding protein RbFox with extraordinary sequence specificity”.
# Numbering of substitutions follows the chain as printed; changes in the protein carry UniProt numbers. The list shows a part of the results.
# T1: RBFOX1 RRM (Homo sapiens, UniProt Q9NWB1 109-208)
# T1 sequence: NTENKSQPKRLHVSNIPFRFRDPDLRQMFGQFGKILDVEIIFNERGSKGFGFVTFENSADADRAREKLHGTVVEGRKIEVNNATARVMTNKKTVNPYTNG
# B1: UUCUUGC (DNA:RNA)
# RNA: GGGAGACCGGAAUUCAGAUUGUCCUUCUUGCUUAAAUCCCGUCGUAGCCACCA
# DNA 1: CAATCTGAATTCCGGTCTCCC
# DNA 2: TGGTGGCTACGACGGGATT
# B2: CACCUGU (DNA:RNA)
# RNA: B1 RNA with U25C, U26A, U28C, C31U
# DNA 1: CAATCTGAATTCCGGTCTCCC
# DNA 2: TGGTGGCTACGACGGGATT
# B3: UGUAAUU (DNA:RNA)
# RNA: B1 RNA with U26G, C27U, U28A, U29A, G30U, C31U
# DNA 1: CAATCTGAATTCCGGTCTCCC
# DNA 2: TGGTGGCTACGACGGGATT
# B4: ACGCAAA (DNA:RNA)
# RNA: GGGAGACCGGAAUUCAGAUUGUCCACGCAAAUUAAAUCCCGUCGUAGCCACCA
# DNA 1: CAATCTGAATTCCGGTCTCCC
# DNA 2: TGGTGGCTACGACGGGATT
# B5: ACUCAGA (DNA:RNA)
# RNA: B4 RNA with G27U, A30G
# DNA 1: CAATCTGAATTCCGGTCTCCC
# DNA 2: TGGTGGCTACGACGGGATT
# B6: UUGUAGU (DNA:RNA)
# RNA: B1 RNA with C27G, U29A, C31U
# DNA 1: CAATCTGAATTCCGGTCTCCC
# DNA 2: TGGTGGCTACGACGGGATT
# B7: GUCUCCA (DNA:RNA)
# RNA: B1 RNA with U25G, U29C, G30C, C31A
# DNA 1: CAATCTGAATTCCGGTCTCCC
# DNA 2: TGGTGGCTACGACGGGATT
# B8: GGCAGUG (DNA:RNA)
# RNA: B1 RNA with U25G, U26G, U28A, U29G, G30U, C31G
# DNA 1: CAATCTGAATTCCGGTCTCCC
# DNA 2: TGGTGGCTACGACGGGATT
# B9: GGGAAAU (DNA:RNA)
# RNA: B4 RNA with A25G, C26G, C28A, A31U
# DNA 1: CAATCTGAATTCCGGTCTCCC
# DNA 2: TGGTGGCTACGACGGGATT
# B10: AGUGAUG (DNA:RNA)
# RNA: B4 RNA with C26G, G27U, C28G, A30U, A31G
# DNA 1: CAATCTGAATTCCGGTCTCCC
# DNA 2: TGGTGGCTACGACGGGATT
# B11: CGUCGAC (DNA:RNA)
# RNA: B4 RNA with A25C, C26G, G27U, A29G, A31C
# DNA 1: CAATCTGAATTCCGGTCTCCC
# DNA 2: TGGTGGCTACGACGGGATT
# B12: AUGAUCC (DNA:RNA)
# RNA: B1 RNA with U25A, C27G, U28A, G30C
# DNA 1: CAATCTGAATTCCGGTCTCCC
# DNA 2: TGGTGGCTACGACGGGATT
# B13: CACAAAG (DNA:RNA)
# RNA: B4 RNA with A25C, C26A, G27C, C28A, A31G
# DNA 1: CAATCTGAATTCCGGTCTCCC
# DNA 2: TGGTGGCTACGACGGGATT
# B14: UGGUGUA (DNA:RNA)
# RNA: B4 RNA with A25U, C26G, C28U, A29G, A30U
# DNA 1: CAATCTGAATTCCGGTCTCCC
# DNA 2: TGGTGGCTACGACGGGATT
# B15: GCAGAGG (DNA:RNA)
# RNA: B4 RNA with A25G, G27A, C28G, A30G, A31G
# DNA 1: CAATCTGAATTCCGGTCTCCC
# DNA 2: TGGTGGCTACGACGGGATT
# B16: AAUUGUG (DNA:RNA)
# RNA: B4 RNA with C26A, G27U, C28U, A29G, A30U, A31G
# DNA 1: CAATCTGAATTCCGGTCTCCC
# DNA 2: TGGTGGCTACGACGGGATT
# B17: UCGCUAC (DNA:RNA)
# RNA: B4 RNA with A25U, A29U, A31C
# DNA 1: CAATCTGAATTCCGGTCTCCC
# DNA 2: TGGTGGCTACGACGGGATT
# B18: UAGCAAA (DNA:RNA)
# RNA: B4 RNA with A25U, C26A
# DNA 1: CAATCTGAATTCCGGTCTCCC
# DNA 2: TGGTGGCTACGACGGGATT
# B19: UACAAAA (DNA:RNA)
# RNA: B4 RNA with A25U, C26A, G27C, C28A
# DNA 1: CAATCTGAATTCCGGTCTCCC
# DNA 2: TGGTGGCTACGACGGGATT
# B20: CAGGGUU (DNA:RNA)
# RNA: B4 RNA with A25C, C26A, C28G, A29G, A30U, A31U
# DNA 1: CAATCTGAATTCCGGTCTCCC
# DNA 2: TGGTGGCTACGACGGGATT
# B21: CUGGAGA (DNA:RNA)
# RNA: B4 RNA with A25C, C26U, C28G, A30G
# DNA 1: CAATCTGAATTCCGGTCTCCC
# DNA 2: TGGTGGCTACGACGGGATT
# B22: UGAUGGG (DNA:RNA)
# RNA: B1 RNA with U26G, C27A, U29G, C31G
# DNA 1: CAATCTGAATTCCGGTCTCCC
# DNA 2: TGGTGGCTACGACGGGATT
# B23: UGCCACA (DNA:RNA)
# RNA: B4 RNA with A25U, C26G, G27C, A30C
# DNA 1: CAATCTGAATTCCGGTCTCCC
# DNA 2: TGGTGGCTACGACGGGATT
# B24: GCUAACG (DNA:RNA)
# RNA: B4 RNA with A25G, G27U, C28A, A30C, A31G
# DNA 1: CAATCTGAATTCCGGTCTCCC
# DNA 2: TGGTGGCTACGACGGGATT
# B25: GACAAAC (DNA:RNA)
# RNA: B4 RNA with A25G, C26A, G27C, C28A, A31C
# DNA 1: CAATCTGAATTCCGGTCTCCC
# DNA 2: TGGTGGCTACGACGGGATT
# B26: GCGGAGG (DNA:RNA)
# RNA: B4 RNA with A25G, C28G, A30G, A31G
# DNA 1: CAATCTGAATTCCGGTCTCCC
# DNA 2: TGGTGGCTACGACGGGATT
# B27: GGCGUUG (DNA:RNA)
# RNA: B1 RNA with U25G, U26G, U28G, G30U, C31G
# DNA 1: CAATCTGAATTCCGGTCTCCC
# DNA 2: TGGTGGCTACGACGGGATT
# B28: UACUGGC (DNA:RNA)
# RNA: B1 RNA with U26A, U29G
# DNA 1: CAATCTGAATTCCGGTCTCCC
# DNA 2: TGGTGGCTACGACGGGATT
# B29: UAGCAUA (DNA:RNA)
# RNA: B4 RNA with A25U, C26A, A30U
# DNA 1: CAATCTGAATTCCGGTCTCCC
# DNA 2: TGGTGGCTACGACGGGATT
# B30: CCCAUCG (DNA:RNA)
# RNA: B1 RNA with U25C, U26C, U28A, G30C, C31G
# DNA 1: CAATCTGAATTCCGGTCTCCC
# DNA 2: TGGTGGCTACGACGGGATT
# B31: UAUCAUU (DNA:RNA)
# RNA: B4 RNA with A25U, C26A, G27U, A30U, A31U
# DNA 1: CAATCTGAATTCCGGTCTCCC
# DNA 2: TGGTGGCTACGACGGGATT
# Target: T1, RBFOX1 RRM
# Experiment: EMSA; HiTS-Eq, 1 nM pool, 10 min; buffer printed only for the single-RNA assays: 10 mM Tris pH 7.5, 150 mM NaCl, 3.4 mM EDTA, 0.001% NP-40, 30 C
# Details: tags: His6 N-terminal (pET28a); label: 5' 32P
# In short: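 A pool of RNA with 7 randomized nucleotides, 5′-radiolabelled and with DNA-annealed flanks, was equilibrated at 1 nM for 10 min in 50 µL with purified RbFox RRM, wild type or mutant, across increasing protein concentrations. Free RNA was separated by 8% native PAGE, excised, reverse-transcribed, barcoded by PCR and sequenced. Relative association constants were obtained from read-count changes of each RNA species versus the control reaction and normalised to the cognate motif.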
row,Binder,binding signal
1,B1,0.0232 KA relative to UGCAUGU
2,B2,0.00677 KA relative to UGCAUGU
3,B3,0.00803 KA relative to UGCAUGU
4,B4,0.0029 KA relative to UGCAUGU
5,B5,0.00734 KA relative to UGCAUGU
6,B6,0.0147 KA relative to UGCAUGU
7,B7,0.0117 KA relative to UGCAUGU
8,B8,0.0112 KA relative to UGCAUGU
9,B9,0.0288 KA relative to UGCAUGU
10,B10,0.0136 KA relative to UGCAUGU
11,B11,0.00831 KA relative to UGCAUGU
12,B12,0.00352 KA relative to UGCAUGU
13,B13,0.00192 KA relative to UGCAUGU
14,B14,0.0174 KA relative to UGCAUGU
15,B15,0.0159 KA relative to UGCAUGU
16,B16,0.014 KA relative to UGCAUGU

row,Binder,binding signal
1,B17,0.00987 KA relative to UGCAUGU
2,B18,0.00538 KA relative to UGCAUGU
3,B19,0.000785 KA relative to UGCAUGU
4,B20,0.0194 KA relative to UGCAUGU
5,B21,0.0188 KA relative to UGCAUGU
6,B22,0.00907 KA relative to UGCAUGU
7,B23,0.00354 KA relative to UGCAUGU
8,B24,0.0135 KA relative to UGCAUGU
9,B25,0.00233 KA relative to UGCAUGU
10,B26,0.0217 KA relative to UGCAUGU
11,B27,0.0253 KA relative to UGCAUGU
12,B28,0.0121 KA relative to UGCAUGU
13,B29,0.011 KA relative to UGCAUGU
14,B30,0.00787 KA relative to UGCAUGU
15,B31,0.00496 KA relative to UGCAUGU
